Activity calls are given as the source filed them. The rule behind the calls is not given here.
Target: Histone deacetylase 2 (Homo sapiens, UniProt Q92769)
Details: A549, at 80 to 400 nM

Chain of UniProt Q92769 (Q92769 whole entry): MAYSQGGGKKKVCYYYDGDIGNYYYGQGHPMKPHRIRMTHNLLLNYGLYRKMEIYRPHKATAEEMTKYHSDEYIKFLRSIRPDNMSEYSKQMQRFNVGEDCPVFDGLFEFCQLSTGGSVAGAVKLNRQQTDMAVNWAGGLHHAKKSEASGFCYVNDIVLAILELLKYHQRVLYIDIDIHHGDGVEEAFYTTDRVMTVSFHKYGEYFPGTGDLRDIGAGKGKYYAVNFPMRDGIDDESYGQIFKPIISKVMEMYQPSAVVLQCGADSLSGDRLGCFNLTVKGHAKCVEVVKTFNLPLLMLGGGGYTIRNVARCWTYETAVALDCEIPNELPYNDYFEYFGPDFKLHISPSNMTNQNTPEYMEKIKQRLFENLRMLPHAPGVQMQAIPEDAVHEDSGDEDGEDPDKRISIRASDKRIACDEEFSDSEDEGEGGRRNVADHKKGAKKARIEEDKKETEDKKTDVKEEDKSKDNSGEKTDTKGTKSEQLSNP

## O=C(CCCCCCn1cc(Nc2ncc(Cl)c(Nc3cccc(Cl)c3)n2)cn1)NO
  inhibition: Active

— ChEMBL document CHEMBL4346670, “Discovery of Novel Janus Kinase (JAK) and Histone Deacetylase (HDAC) Dual Inhibitors for the Treatment of Hematological Malignancies” (J Med Chem, 2019)
